# The other results are listed elsewhere or left out.
# Test system: PF3D7_0420300 AP2 domain 1 (GST-tagged)
# Experiment: gcPBM binding intensity (ln(normalized median fluorescence intensity)); higher = stronger DNA binding
# In short: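 Binding intensity is the highest Masliner-normalised natural-log median intensity over replicate spots in either probe orientation. To obtain it, GST-tagged P. falciparum DNA-binding domains made in E. coli were incubated for 1 h on an Agilent 4 × 180k array of primer-extended double-stranded 36-bp intergenic genomic probes plus negative controls. Detection used Alexa488 anti-GST antibody with scanning at 488 nm.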
row,Sequence,gcPBM binding intensity (ln)
1,ATATGTTAAAAATTCACACAAAAAAGTATACAGATA [CACACA_site4179],9.53
2,TATGAATGCTTTTATGCACACGTACAAAAATATTAT [CACACA_site8851],9.21
3,TTACCTATTCTAAAATGTACACATTATATATGTGCT [XGTACX_site5776],9.26
4,ACATGTTTCATATGTTGTACTAACTTAAATATAAAT [XGTACX_site6412],9.16
5,TAAAGTACAGGAGTAAATTGAAAAAAAAAAAAAAAA [CACACA_negctrl_site1410],8.73
6,TATAATATTCCTTTTTAACACACATATGAACAAATA [CACACA_site7932],9.3
7,ATAAATAAATAAATACGTACATATATATATATATAT [XGTACX_site8838],9.3
8,ATACATATATTTTTATGTACATATATTTTTTTTGTA [XGTACX_site4546],9.26
9,TTGATATCTTTTTTTTGTACATATATTTATAAGTAA [XGTACX_site3538],9.19
10,AAAATATAAGCCACTACACACATATATAAATGTATA [CACACA_site2639],9.82
11,TTTTAGAGTGATATATATTAACTTTTAATAAAAAAA [CACACA_negctrl_site611],8.72
12,TTTTTTTAAATTATATGTACATAATTTTAATTTTAT [XGTACX_site5086],9.15
13,GTTATACACATATATACACACATATGTAGATATATA [CACACA_site7529],9.58
14,ATAAAATAAAAAAGTAGTACACACTTCACGATATTT [XGTACX_site8289],9.59
15,AATAAATAAACAAATTAACACACAGAATTTTTTTTT [CACACA_site8485],9.59
16,ATTATGTTATATATATGTACATATATAATGTTCATA [XGTACX_site6184],9.24
17,ATAATTATAAAATAAACACACATATATATTTATATG [CACACA_site440],9.44
18,ATAATGATTATAATATGTACATAAATATATATATTA [XGTACX_site5029],9.19
19,AAACAATACATATATTGTACATATATTATATTATAT [XGTACX_site8136],9.31

row,Sequence,gcPBM binding intensity (ln)
1,AATTTGAAATAAAGTAGTACAGTATATAAAAATATA [XGTACX_site128],9.37
2,TTAGAAATTCATTTTACACACAATTCAAAAGAATGT [CACACA_site2104],9.25
3,CGGATCTATAAGTGTACACAATCTAGCGAAAAGTTT [CACACA_site4932],9.2
4,AAAAAATCAAAACACACACACACACCCAAAAAAAAA [CACACA_site1444],10.1
5,AATAAACAAATATGTACACACATATACCTATAAATA [CACACA_site7358],9.75
6,ATATTAGATTAATTTACACACAGAAAATGAGATTTT [CACACA_site541],9.44
7,CCAACATATATTATCACACACATATATATATATATA [CACACA_site2016],9.58
8,TAGAGTATATATAAATGTACATATTTTATGCTAATT [XGTACX_site7821],9.21
9,AAAAAATTAAATAATTACAAAAAAATAAAATAAAAA [GTGCAC_negctrl_site638],9.35
10,AAAAATAATGCACATATATATAATATGTATATGTAT [CACACA_negctrl_site443],9.37
11,TTATTGTAAATATATGCATGTGCAAAATGAAAAAAA [TGCATGCA_site399],9.24
12,TTTTAAACAAGACACACACACATATATATATATATA [CACACA_site925],9.62
13,ATGTTTACATATTAGGGTACATAATAAATTGCATAT [XGTACX_site6712],9.25
14,CATGTATTTTATATTACACACTAATATTATATATAT [CACACA_site1508],9.37
15,GAATGTATAAAATGAACACACGCCAAATTAAATGAA [CACACA_site3044],9.45
16,ACATAAGAACATATTTGTACGTATATAAATTAAATA [XGTACX_site6127],9.3
17,ACAACAAAAATAAGCACACACAAATATACATACATA [CACACA_site7664],10.2
18,TTTTAAATCTTATATTCCCCACATAAATAGCTCTCT [GTGCAC_negctrl_site665],8.98
19,TTATATATTAATAGTAGTACTATATTGAATCACCCC [XGTACX_site2868],9.47

row,Sequence,gcPBM binding intensity (ln)
1,AGTTTATAGTGATATTGTACATATATATATATATAT [XGTACX_site572],9.38
2,AAAATTTATATAAGCACACAAATATATATTTATATC [CACACA_site3291],9.45
3,TTATTTTTGTTTTGAAGTACAAAAAAATATATTCTT [XGTACX_site6416],8.92
4,TATTTATACTCAACTTTCTGTTATTCCAACTTTTTT [XGTACX_negctrl_site410],9.4
5,ATATACAAATATATATATATATATATATATATATAT [CACACA_negctrl_site886],9.07
6,GCAAATATGTTGATATGTACATATATATATATATAT [XGTACX_site445],9.28
7,TATTTCTTTATTGGCACACATTTTTTCAATTATATA [CACACA_site4975],9.62
8,ATTATTTTAATAAAACGTACAAAATATAAATCAAAA [XGTACX_site3770],9.26
9,AAAAAATATACATATACACACATATGTATATATAAT [CACACA_site8676],9.5
10,AATAACAAAATATTAACACACATAACATATTATAAA [CACACA_site2803],9.8
11,TTTTTTCATATAAATACATGCACACAAAAATATCAA [TGCATGCA_site602],9.26
12,TAATGTTTTTTTTGTTTACCAAAAATAATACATTAT [CACACA_negctrl_site203],8.99
13,ATATATATATATGTGTGTACATATATGTGGATGGAT [XGTACX_site6240],9.83
14,TTATAGGATCAAGCGCGTACATATCTTTATAAAAGA [XGTACX_site5775],8.97
15,GTCATATATTATAATAGTACATAAATAATTGATGCC [XGTACX_site3567],9.3
16,TTTTTCTATATTTTCTTTTATAAAATATATAATTTT [GTGCAC_negctrl_site345],9.1
17,CACAGAAATAGAGATACACACACACCGATATTTATG [CACACA_site9313],9.92
18,ATAGTTATTTTATAGCGTACACAATAAATATATAAA [XGTACX_site4445],9.26

# Reference: the supplement of paper PMC11417369
